Measured values taken from patent US4990518A, “Pharmacologically active heteroaryl substituted imidazo (4,5-c) pyridines” (G. D. Searle & Co., priority 1989, dated 1991).

Target: PAF receptor (Human Platelet Membrane Receptors) (Homo sapiens, UniProt P25105)
Test: Inhibition of ^3 H-PAF Binding to Human Platelet Membrane Receptors
Conditions: read-out: Inhibition of ^3 H-PAF Binding to Human Platelet (% Inhib.)
Description: Inhibition of ^3 H-PAF Binding to Human Platelet Membrane Receptors
Receptor Preparation: Ten units of in-dated human packed platelets, each containing 45-65 ml platelet rich-plasma, were purchased from a commercial blood bank. Disposable plasticware was used throughout for receptor preparation. The units were pooled and a 1 ml aliquot was removed for determination of platelet concentration, using a Coulter Counter. […] Protein content was determined by a fluorescamine protein assay.
Assay Methods: Receptor Characterization--Each receptor preparation was evaluated to determine the number of receptor populations, the number of PAF receptor equivalents/mg protein and the dissociation constant (KD) for PAF binding. This required 2-3 experiments in which the protein concentration was held constant and the ^3 H-PAF ligand concentration was varied from approximately 0.10-2.5 nM and the data was analyzed by Scatchard methodology. […]
Assay Methods: Routine Assay of Compounds--The compounds were weighed precisely and solubilized in quantities of DMSO such that a 5 μl aliquot in the incubate would deliver the desired compound concentration. Compounds tested for the first time in this assay were evaluated at a concentration of 50 μM in the incubation medium. […]

Sequence of UniProt P25105 (P25105 whole entry): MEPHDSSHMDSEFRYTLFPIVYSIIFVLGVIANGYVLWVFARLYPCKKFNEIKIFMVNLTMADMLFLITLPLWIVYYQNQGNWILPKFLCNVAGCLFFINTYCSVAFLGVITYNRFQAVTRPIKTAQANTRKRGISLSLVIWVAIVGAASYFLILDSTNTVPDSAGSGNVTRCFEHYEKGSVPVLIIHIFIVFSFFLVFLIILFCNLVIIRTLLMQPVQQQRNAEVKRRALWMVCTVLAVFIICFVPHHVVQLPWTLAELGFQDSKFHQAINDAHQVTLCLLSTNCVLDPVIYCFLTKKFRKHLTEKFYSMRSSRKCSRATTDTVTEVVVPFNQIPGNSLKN

Compound: CN(C(=O)c1ccc(Cn2ccc3ncnc-3c2)o1)C1CCCCC1 [Example 2, N-cyclohexyl-5-[(5H-imidazo[4,5-c]pyridin-5-yl)methyl]N-methyl-2-furancarboxamide]
- inhibition at 50 µM: 42%

Compound: O=C(c1ccc(Cn2ccc3ncnc-3c2)o1)N(C1CCCCC1)C1CCCC1 [Example 3]
- inhibition at 50 µM: 37 to 62%
